# Assay results reported in the antibiotic and cytotoxicity screens of Wong et al. (2023).
# Some of the results follow.
# What was measured:
# [1] = system: HSkMC (human skeletal muscle cells); assay: cytotoxicity call (relative viability < 0.9); conditions: 10 µM
# [2] = system: HepG2; assay: cytotoxicity call (relative viability < 0.9); conditions: 10 µM
# [3] = system: S. aureus RN4220; assay: growth inhibition call (relative growth <= 0.2); conditions: 50 µM
Structure (SMILES),cytotoxicity call [1],cytotoxicity call [2],growth inhibition call [3]
Cc1noc(C)c1S(=O)(=O)Nc1ccc2c(c1)CC(=O)N([C@@H](C)CO)C[C@H](C)[C@H](CN(C)S(=O)(=O)c1ccc(Cl)cc1)O2,inactive,inactive,inactive
C[C@H](CO)N1C[C@H](C)[C@H](CN(C)S(=O)(=O)c2ccc(F)cc2)Oc2ncc(C#Cc3ccc(F)cc3)cc2C1=O,inactive,active,inactive
OCC(S)CS (stereo not drawn),inactive,inactive,inactive
COC(=O)C[C@@H]1CC[C@H]2[C@@H](COC[C@@H](O)CN2S(=O)(=O)c2ccccc2C)O1,inactive,inactive,inactive
C[C@@H]1CN([C@@H](C)CO)C(=O)c2cccc(NC(=O)Nc3ccc(C(F)(F)F)cc3)c2O[C@H]1CN(C)C(=O)NC1CCCCC1,active,active,inactive
COc1ccc(NC(=O)Nc2ccc3c(c2)C(=O)N([C@@H](C)CO)C[C@@H](C)[C@@H](CN(C)C(=O)c2ccccc2)OCCCC[C@H](C)O3)cc1,inactive,inactive,inactive
C[C@@H]1CCCCO[C@@H](CN(C)Cc2ccc(C(F)(F)F)cc2)[C@@H](C)CN([C@H](C)CO)C(=O)c2cc(NC(=O)Nc3cccc4ccccc34)ccc2O1,inactive,inactive,inactive
C[C@@H]1CN([C@@H](C)CO)C(=O)c2ccccc2-c2ccccc2CO[C@@H]1CN(C)Cc1ccc(Oc2ccccc2)cc1,inactive,inactive,inactive
Cc1nsc(C(=O)NC[C@H]2CCCO2)n1,inactive,inactive,inactive
C[C@@H]1CN([C@H](C)CO)C(=O)c2c(c3ccccc3n2C)-c2ccccc2CO[C@H]1CN(C)S(=O)(=O)c1cn(C)cn1,inactive,inactive,inactive
COc1ccc(CCN(C)CCCOc2ccc(S(=O)(=O)c3c(C(C)C)c4ccccc4n3C)cc2)cc1OC,active,active,inactive
CNCC(O)C(O)C(O)C(O)CO.Cc1c(Nc2ncccc2C(=O)O)cccc1C(F)(F)F,inactive,inactive,inactive
OCc1ccccc1,inactive,inactive,inactive
CC1=C(/C=C/C(C)=C/C=C/C(C)=C/C=C/C=C(C)/C=C/C=C(C)/C=C/C2=C(C)C(=O)C(O)CC2(C)C)C(C)(C)CC(O)C1=O (stereo not drawn),inactive,inactive,inactive
C[C@H](CO)N1C[C@H](C)[C@@H](CN(C)Cc2ccc(C(=O)O)cc2)Oc2ccc(NC(=O)Nc3cccc4ccccc34)cc2C1=O,inactive,inactive,inactive
Cc1ccc(S(=O)(=O)N(C)C[C@@H]2Oc3c(NC(=O)c4cnccn4)cccc3C(=O)N([C@H](C)CO)C[C@H]2C)cc1,inactive,inactive,inactive
O=C(c1ccncc1)N1C[C@@H]2[C@H](c3ccccc31)[C@@H](CO)N2C(=O)CN1CCOCC1,inactive,inactive,inactive
C[C@H]1CCCCO[C@H](CN(C)S(=O)(=O)c2cccs2)[C@@H](C)CN([C@@H](C)CO)C(=O)c2cc(NS(=O)(=O)c3ccc(Cl)cc3)ccc2O1,inactive,inactive,inactive
CN(C)CC(=O)N[C@@H]1CC[C@@H](CCn2cc(CN(C)C)nn2)O[C@H]1CO,inactive,inactive,inactive
C[C@@H]1CCCCO[C@@H](CN(C)C(=O)CCCN(C)C)[C@H](C)CN([C@@H](C)CO)C(=O)c2cc(NC(=O)Nc3ccc(C(F)(F)F)cc3)ccc2O1,inactive,inactive,inactive
O=C(C[C@H]1CC[C@H]2[C@@H](COC[C@H](O)CN2S(=O)(=O)c2ccccc2)O1)N[C@@H]1CCN(Cc2ccccc2)C1,inactive,inactive,inactive

Structure (SMILES),cytotoxicity call [1],cytotoxicity call [2],growth inhibition call [3]
Cc1noc(C)c1NC(=O)N(C)C[C@H]1Oc2c(NC(=O)c3ccc(-c4nccs4)cc3)cccc2C(=O)N([C@@H](C)CO)C[C@H]1C,inactive,inactive,inactive
C[C@@H]1CN([C@H](C)CO)C(=O)c2cc(NC(=O)Cc3ccccc3)ccc2O[C@@H](C)CCCCO[C@H]1CN(C)C(=O)Nc1ccccc1,inactive,active,inactive
C[C@@H]1CN([C@@H](C)CO)C(=O)c2cc(NS(=O)(=O)c3ccc(F)cc3)ccc2O[C@@H]1CN(C)S(=O)(=O)c1cn(C)cn1,inactive,inactive,inactive
C[C@@H]1CCCCO[C@@H](CN(C)Cc2ccc(C(=O)O)cc2)[C@@H](C)CN([C@H](C)CO)C(=O)c2cc(NC(=O)NC3CCCCC3)ccc2O1,inactive,inactive,inactive
C[C@@H]1CN([C@H](C)CO)C(=O)c2cc(NC(=O)NC3CCCCC3)ccc2O[C@@H](C)CCCCO[C@H]1CN(C)Cc1ccc2c(c1)OCO2,inactive,inactive,inactive
COc1ccc(S(=O)(=O)N(C)C[C@@H]2OCCCC[C@@H](C)Oc3ccc(NC(=O)CCC(F)(F)F)cc3C(=O)N([C@@H](C)CO)C[C@H]2C)cc1,inactive,inactive,inactive
C[C@H]1CN([C@@H](C)CO)C(=O)c2cc(NC(=O)Nc3ccccc3)ccc2O[C@@H]1CN(C)C(=O)Nc1ccc(C(F)(F)F)cc1,inactive,inactive,inactive
Cc1cc(NC(=O)CCCC(=O)O)n(C)n1,inactive,inactive,inactive
COc1ccc(S(=O)(=O)Nc2ccc3c(c2)CC(=O)N([C@H](C)CO)C[C@@H](C)[C@H](CN(C)Cc2ccncc2)O3)cc1,inactive,inactive,inactive
C[C@@H]1CCCCO[C@@H](CN(C)C(=O)NC2CCCCC2)[C@@H](C)CN([C@H](C)CO)C(=O)c2cc(NC(=O)Nc3cccc4ccccc34)ccc2O1,inactive,inactive,inactive
C[C@@H]1CN([C@H](C)CO)C(=O)Cc2cc(NC(=O)Cc3cn(C)c4ccccc34)ccc2O[C@H]1CN(C)S(=O)(=O)c1cn(C)cn1,inactive,inactive,inactive
C[C@@H]1CN([C@@H](C)CO)C(=O)Cc2cc(NC(=O)Cc3ccccc3)ccc2O[C@H]1CN(C)S(=O)(=O)c1ccc(F)cc1,inactive,inactive,inactive
C[C@@H]1CN([C@H](C)CO)C(=O)Cc2cc(NS(=O)(=O)c3ccccc3)ccc2O[C@H]1CN(C)S(=O)(=O)c1cccs1,inactive,inactive,inactive
C[C@@H]1CN([C@@H](C)CO)C(=O)c2cc(/C=C/c3ccccc3)cnc2O[C@H]1CN(C)C(=O)C1CCOCC1,inactive,inactive,inactive
CO[C@H]1O[C@@H](COC(C)=O)[C@@H](OC(C)=O)C(C#N)(C#N)[C@@H]1OC(C)=O,inactive,inactive,inactive
C[C@@H]1CN([C@H](C)CO)C(=O)c2cccc(NC(=O)Nc3ccc(C(F)(F)F)cc3)c2O[C@H]1CN(C)Cc1ccc(Oc2ccccc2)cc1,active,inactive,inactive
COc1ccc(NC(=O)Nc2ccc3c(c2)C(=O)N([C@H](C)CO)C[C@H](C)[C@H](CN(C)Cc2ccccc2)OCCCC[C@@H](C)O3)cc1,inactive,inactive,inactive
COC(=O)c1c(C#N)c(N)nc2c1CCC2,inactive,inactive,inactive
CCn1nc(C)c([C@@H](C)N)c1C,inactive,inactive,inactive
C[C@@H]1CCCCO[C@@H](CN(C)C(=O)Nc2ccc(F)cc2)[C@@H](C)CN([C@H](C)CO)C(=O)c2cc(NC(=O)Cc3ccccc3)ccc2O1,inactive,inactive,inactive
